Values marked as one replicate rest on one cluster of the flow cell; about a third of the high ones do not repeat.
What follows are sequences tested on ATP (assay: switch fluorescence ratio, 500 uM ATP over buffer (Cy3 cluster intensity, sum of 5 cycles each) (fold (ratio)); higher = stronger signal-on switching upon ATP binding; sequences stand for … in TCGTCGGCAGCGTCAGATGTGTATAAGAGACAGTTTTTTTTTTTTTTTTTTTTTTTTT…TC). Conditions: aptamer strand: ATP DNA aptamer (quencher-CACCTGGGGGAGTATTGCGGAGGAAGG + anchor), 100 nM annealed; ATP concentration: 500 uM; one replicate.
In short: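 Values give the fluorescence ratio for each switch-domain sequence, averaged from per-cluster ratios of summed target-cycle to summed buffer-cycle Cy3 intensity. The Cy3-labelled switching-strand clusters sat on a modified Illumina MiSeq flow-cell, were annealed to 100 nM quencher-labelled ATP aptamer, and were imaged in selection buffer, then after 15 min with 500 uM ATP at 22 °C. Five cycles ran with NaOH stripping and re-annealing between them, and clusters outside 100-1000 RFU were excluded.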
For TCCGCCCAGA, the switch fluorescence ratio was 1.9.
TCCGCGCGAT showed a switch fluorescence ratio of 2.03.
Work on TCCGCTCAGG yielded a switch fluorescence ratio of 1.52.
For TCCGGAATT, the switch fluorescence ratio was 1.16.
In the case of TCCGGAGAGT, the switch fluorescence ratio is reported as 1.81.
In the case of TCCGGGCCAG, the switch fluorescence ratio is reported as 1.03.
Work on TCCGGGTACG yielded a switch fluorescence ratio of 1.27.
With TCCGGTCGCT the switch fluorescence ratio was 1.24.
TCCGTAGATT gave a switch fluorescence ratio of 1.39.
With TCCGTAGGTA the switch fluorescence ratio was 1.05.
Sequence TCCGTCTTCC has a switch fluorescence ratio of 1.1.
Sequence TCCGTGGAAT has a switch fluorescence ratio of 1.01.
Sequence TCCGTTAGCT has a switch fluorescence ratio of 1.52.
Work on TCCGTTGTCA yielded a switch fluorescence ratio of 1.02.
In the case of TCCGTTTTGT, the switch fluorescence ratio is reported as 1.03.
Sequence TCCTAATGTT has a switch fluorescence ratio of 0.995.
TCCTAATTTT showed a switch fluorescence ratio of 1.01.
In the case of TCCTACACTG, the switch fluorescence ratio is reported as 1.12.
TCCTACATGC showed a switch fluorescence ratio of 1.64.
TCCTACCCTG gave a switch fluorescence ratio of 1.1.
In the case of TCCTAGGGAT, the switch fluorescence ratio is reported as 0.996.
TCCTAGTAAT showed a switch fluorescence ratio of 1.57.
With TCCTATCTTA the switch fluorescence ratio was 1.02.
TCCTATGTGC showed a switch fluorescence ratio of 1.08.
TCCTCATTCC showed a switch fluorescence ratio of 1.35.
TCCTCGCACG gave a switch fluorescence ratio of 3.1.
Work on TCCTGACAAC yielded a switch fluorescence ratio of 1.17.
TCCTGAGTGT was tested, and the switch fluorescence ratio was 1.
Sequence TCCTGATGC has a switch fluorescence ratio of 1.14.
For TCCTGCCGAA, the switch fluorescence ratio was 1.35.
With TCCTGCGCCC the switch fluorescence ratio was 3.91.
Work on TCCTGCTGGA yielded a switch fluorescence ratio of 1.
TCCTGGAGT gave a switch fluorescence ratio of 1.05.
TCCTGGGCCA gave a switch fluorescence ratio of 0.998.
In the case of TCCTGGTTG, the switch fluorescence ratio is reported as 1.01.
Work on TCCTGTTT yielded a switch fluorescence ratio of 1.1.
In the case of TCCTTATTTC, the switch fluorescence ratio is reported as 0.988.
In the case of TCCTTGGAAG, the switch fluorescence ratio is reported as 0.996.
For TCCTTGTGAT, the switch fluorescence ratio was 1.05.
TCCTTTACTT gave a switch fluorescence ratio of 1.02.
In the case of TCCTTTGTCT, the switch fluorescence ratio is reported as 1.05.
For TCCTTTTGCC, the switch fluorescence ratio was 1.16.
In the case of TCCTTTTTTC, the switch fluorescence ratio is reported as 1.04.
TCGAAACCAA was tested, and the switch fluorescence ratio was 1.01.
In the case of TCGAAACTAG, the switch fluorescence ratio is reported as 0.989.
TCGAACTTCT gave a switch fluorescence ratio of 1.02.
TCGAAGGAGC showed a switch fluorescence ratio of 0.985.
For TCGAAGTGCG, the switch fluorescence ratio was 0.991.
TCGAATCTCG showed a switch fluorescence ratio of 0.978.
TCGAATTCTG showed a switch fluorescence ratio of 1.01.
TCGAATTTAT was tested, and the switch fluorescence ratio was 1.01.
With TCGACAATAT the switch fluorescence ratio was 3.34.
For TCGACACGTC, the switch fluorescence ratio was 1.1.
TCGACAGCCC gave a switch fluorescence ratio of 1.11.
Sequence TCGACCCGGT has a switch fluorescence ratio of 1.02.
Sequence TCGACTACAG has a switch fluorescence ratio of 0.96.
TCGAGAAAGT gave a switch fluorescence ratio of 0.948.
For TCGAGACAGT, the switch fluorescence ratio was 1.06.
TCGAGGGA was tested, and the switch fluorescence ratio was 1.03.
In the case of TCGAGGTCTC, the switch fluorescence ratio is reported as 0.947.
Work on TCGAGTCT yielded a switch fluorescence ratio of 1.01.
Sequence TCGATATCGT has a switch fluorescence ratio of 0.94.
For TCGATATTTT, the switch fluorescence ratio was 0.976.
Work on TCGATCATGT yielded a switch fluorescence ratio of 0.963.
TCGATGACCG showed a switch fluorescence ratio of 1.13.
TCGATGAGTG gave a switch fluorescence ratio of 1.03.
TCGATGCGGC showed a switch fluorescence ratio of 1.21.
For TCGATGTGAG, the switch fluorescence ratio was 1.03.
TCGATTAGG showed a switch fluorescence ratio of 1.01.
TCGATTGGTT gave a switch fluorescence ratio of 0.975.
For TCGATTTTAC, the switch fluorescence ratio was 1.11.
For TCGCAAAGTT, the switch fluorescence ratio was 1.12.
TCGCACTCGC was tested, and the switch fluorescence ratio was 1.2.
Work on TCGCACTTGA yielded a switch fluorescence ratio of 1.06.
TCGCATAAA showed a switch fluorescence ratio of 1.26.
Sequence TCGCATTGTG has a switch fluorescence ratio of 1.01.
With TCGCCACTTT the switch fluorescence ratio was 1.03.
TCGCCATCTC gave a switch fluorescence ratio of 1.63.
In the case of TCGCCCAGAA, the switch fluorescence ratio is reported as 0.982.
TCGCCCCTG showed a switch fluorescence ratio of 1.03.
TCGCCCTAAC was tested, and the switch fluorescence ratio was 1.29.
With TCGCCCTTAC the switch fluorescence ratio was 3.74.
TCGCCGCGAA showed a switch fluorescence ratio of 2.11.
In the case of TCGCCTACAC, the switch fluorescence ratio is reported as 1.49.
TCGCGACACG showed a switch fluorescence ratio of 1.08.

From the supplement of paper PMC10126150
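Further: ATP exposure 15 min at 22 °C before imaging.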
